# Assay results taken from the supplement of paper PMC12217912.
# Some of the results follow. The full chains were built here from the parent and the listed change. Values near 0.05 are background.
# B1: TEV protease; numbered along this chain (parent)
# chain: MGESLFKGPRDYNPISSSICHLTNESDGHTTSLYGIGFGPFIITNKHLFRRNNGTLVVQSLHGVFKVKDTTTLQQHLVDGRDMIIIRMPKDFPPFPQKLKFREPQREERICLVTTNFQTKSMSSMVSDTSCTFPSGDGIFWKHWIQTKDGQCGSPLVSTRDGFIVGIHSASNFTNTNNYFTSVPKNFMELLTNQEAQQWVSGWRLNADSVLWGGHKVFMVKPEEPFQPVKEATQL
# Variants of: B1
# Test: raw area under fraction-flipped curve 0-4 h after induction (AUC4h, not background-subtracted), DNA-recorder readout of cleavage of the substrate (dimensionless); higher = more cleavage of the substrate by the protease variant
# Conditions: temperature: 34 °C; time window: 0-4 h after rhamnose induction
# Protocol: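 In vivo DNA recorder in E. coli TOP10(DE3) ΔrhaA at 34 °C. Each TEVp single-site mutant (parent TEVp 0) is paired with a single-site variant of the 7-mer TEVs (canonical ENLYFQ|S). The substrate sits between flexible linkers in a Bxb1-sfGFP-TEVs-SsrA fusion, so cleavage stabilises Bxb1 and speeds flipping of a recombination array, read by NGS. The value is the raw area under the fraction-flipped curve over 0-4 h after rhamnose induction (AUC4h), with ≥20 reads per time point. It is not background-subtracted; inactive controls average about 0.047.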
# 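Note: Bxb1 expression induced with 0.2% (w/v) L-rhamnose at OD600 near 0.5, cultures sampled hourly, flipped fraction per protease–substrate barcode pair counted by paired-end Illumina sequencing.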
Variant,area with substrate ENLYDQS,area with substrate ENLYEQS,area with substrate ENLYGQS,area with substrate ENLYHQS,area with substrate ENLYIQS,area with substrate ENLYLQS,area with substrate ENLYMQS,area with substrate ENLYNQS,area with substrate ENLYPQS,area with substrate ENLYQQS,area with substrate ENLYRQS,area with substrate ENLYSQS,area with substrate ENLYTQS,area with substrate ENLYWQS,area with substrate ENLYKQS,area with substrate ENLYYQS,area with substrate ENLYVQS
S4V,0.0638,0.0585,0.0668,0.0628,0.18,0.118,0.114,0.0746,0.0744,0.0812,0.0607,0.0723,0.0775,0.0876,,,
H29Q,0.0638,,,0.0759,0.112,,0.0816,,,0.0614,0.0454,,0.0796,0.106,0.0586,0.0673,
F140M,,0.0738,,,,,0.0789,0.0715,,,0.0448,0.0526,,0.0565,0.0612,,0.106
F140I,0.0571,0.0596,0.0739,0.0473,0.0803,,0.0569,0.0593,0.0636,0.0707,0.0588,0.0588,0.056,0.0543,0.0331,,0.115
K148T,0.0564,0.0652,0.0681,0.0638,0.0986,0.0766,0.0703,0.067,0.0605,0.0606,0.067,,,0.0663,0.0494,,0.0887
Q197C,0.0475,0.0639,0.078,0.0757,0.089,,0.107,0.0444,0.0675,,0.0635,0.0684,,0.0779,0.0563,,0.0834
S182W,,,0.0482,0.0378,0.0725,,,,0.0468,0.0554,0.0576,,,0.0533,,0.0433,
Q118F,0.0586,0.0903,,0.0439,,,0.0917,0.0635,,0.0577,0.057,0.078,0.0821,,0.0476,0.06,0.124
Q118A,0.064,0.0699,0.107,0.0701,0.139,0.0813,0.0716,0.0674,0.07,0.0639,0.05,0.0812,,0.0855,,0.0612,0.132
H62N,,0.0683,0.0618,0.0676,,0.082,0.0863,0.0577,0.0481,,0.068,,0.0924,,0.0447,0.0702,
S171G,,0.0549,0.0644,,,,0.0474,,,0.0776,,0.0633,,,0.0764,,
P9A,0.0521,0.0699,0.0588,0.0754,0.128,,0.0883,,0.0728,,0.0526,0.0764,0.0795,0.08,0.0345,,0.121
N193P,0.0597,0.0701,,0.0788,,,0.0642,,0.0439,0.0724,0.0573,0.0696,0.0591,,0.0628,0.051,
Q59V,,,0.0668,0.0834,0.101,,,,,,,,,,0.0652,0.0555,0.115
Q74H,,,0.0823,0.0567,0.104,,,,,,0.047,,,,0.0593,,0.105
I42D,,0.0425,0.0407,0.0451,,,0.0663,0.0522,0.0513,0.0477,0.0731,,,0.056,,0.0204,
F218H,,0.133,0.0723,0.0658,,,,0.0454,0.0568,0.0751,0.0657,0.0563,0.0783,,0.0664,,0.13
T192Y,,0.0596,,0.0875,0.108,,0.0604,0.0684,0.0734,0.0581,0.0471,,0.0794,0.0814,0.0469,,
T192D,,0.0646,0.0906,,,0.0644,0.0702,0.0705,,0.0644,0.0451,0.0778,0.086,,0.0607,,0.109
K120L,,,0.0638,,,,,0.0639,0.0768,0.0911,,,,0.0828,,0.0575,
E3P,,0.0685,,0.0656,0.15,0.0887,0.0702,0.084,0.0678,,,0.0653,,0.073,0.0543,0.0601,
D128H,,0.0561,0.094,0.0728,0.121,,0.127,0.074,0.0804,0.0601,,0.081,,0.08,0.0672,0.0517,0.151
G136P,0.0616,0.0612,,0.0646,0.0703,,0.0689,0.0629,,0.0515,0.0521,0.0636,,,,0.0713,0.0753
L156K,0.0811,0.0551,0.0645,0.0372,0.0434,,0.0517,0.0511,,0.0321,0.0526,0.0617,,0.0528,0.0634,,
P225W,,0.0647,0.0587,0.0417,0.103,,0.0879,0.0507,0.0714,0.055,0.0561,0.0701,0.0999,,0.102,,
Q105T,0.0511,0.0593,0.064,0.0706,,0.0681,0.0822,0.077,0.0756,0.0764,0.0759,0.0648,0.0853,0.0673,0.0642,,0.14
C111K,,0.0757,0.0687,,0.14,,0.0721,0.0809,0.0779,0.076,0.0753,0.0855,,0.134,0.068,,
